The values that follow come from PMC4336329 (PLoS ONE, 2015).

Screen size: about 310,000 compounds; about 2,200 (0.71%) showed an effect of 50% or more. Effects have a minus sign here. The list shows a part of the results.

The target of this assay is human ether-à-go-go-related gene (hERG) potassium channel (human, UniProt Q12809). Kind of assay: primary screen, population patch clamp on CHO cells stably expressing hERG.
human ether-à-go-go-related gene (hERG) potassium channel, sequence (Q12809 whole entry, looked up): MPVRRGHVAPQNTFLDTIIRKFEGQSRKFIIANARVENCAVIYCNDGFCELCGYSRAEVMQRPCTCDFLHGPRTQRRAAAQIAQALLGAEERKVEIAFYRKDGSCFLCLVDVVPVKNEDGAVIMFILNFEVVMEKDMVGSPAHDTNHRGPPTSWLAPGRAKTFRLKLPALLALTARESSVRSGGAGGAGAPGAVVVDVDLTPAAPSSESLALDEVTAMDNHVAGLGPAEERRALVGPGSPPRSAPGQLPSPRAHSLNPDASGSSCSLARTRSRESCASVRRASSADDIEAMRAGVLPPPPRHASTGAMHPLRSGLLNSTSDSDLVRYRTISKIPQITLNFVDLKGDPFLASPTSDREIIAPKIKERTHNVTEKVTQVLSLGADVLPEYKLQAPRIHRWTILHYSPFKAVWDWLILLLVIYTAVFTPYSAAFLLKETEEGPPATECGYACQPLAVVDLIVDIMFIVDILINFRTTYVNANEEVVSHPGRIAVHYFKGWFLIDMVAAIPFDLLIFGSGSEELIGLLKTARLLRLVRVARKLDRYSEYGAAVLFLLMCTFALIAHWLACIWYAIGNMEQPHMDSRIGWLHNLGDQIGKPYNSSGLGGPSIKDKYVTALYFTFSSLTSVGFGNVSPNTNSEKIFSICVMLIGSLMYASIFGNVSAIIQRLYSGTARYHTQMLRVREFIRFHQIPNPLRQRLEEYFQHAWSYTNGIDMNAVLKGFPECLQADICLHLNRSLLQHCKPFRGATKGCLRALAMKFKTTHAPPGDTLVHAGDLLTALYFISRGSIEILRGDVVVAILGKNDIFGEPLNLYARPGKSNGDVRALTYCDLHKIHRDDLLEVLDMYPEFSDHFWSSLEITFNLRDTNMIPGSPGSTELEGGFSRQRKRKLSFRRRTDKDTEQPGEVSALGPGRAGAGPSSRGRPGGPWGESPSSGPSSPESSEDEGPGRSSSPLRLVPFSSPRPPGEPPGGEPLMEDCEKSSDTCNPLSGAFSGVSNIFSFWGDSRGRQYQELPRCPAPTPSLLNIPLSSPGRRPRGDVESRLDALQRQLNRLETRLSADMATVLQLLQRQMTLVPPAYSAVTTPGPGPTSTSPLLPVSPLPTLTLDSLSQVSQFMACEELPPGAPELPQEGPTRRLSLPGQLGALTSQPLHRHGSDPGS
Turning to `CN(C)C1=NCCN1CCc1ccccc1`, the “hERG current change (%, negative = inhibition) at 1uM” value was 15.6%.
As for `Nc1nn(-c2ccccc2)nc1C(=O)OCc1ccccc1`, the figure is 10.3%.
For `Cc1cccc(C2C3=C(CCCC3=O)N=C3c4ccccc4C(=O)C32)c1` (stereo not drawn), the “hERG current change (%, negative = inhibition) at 1uM” value was found to be 7.81%.
To `CCN(CC(=O)Nc1cc(Cl)ccc1OC)CC(=O)NC1CCS(=O)(=O)C1.O=C(O)C(=O)O` (stereo not drawn) belongs 4.29%.
Take `CCc1ccc(NC(=O)COc2ccc3c(c2)OCO3)cc1`: the “hERG current change (%, negative = inhibition) at 1uM” value stood at 13.1%.
To `COCc1cc(=O)[nH]c(/N=C(\N)Nc2ccc(C)cc2)n1` belongs -15.3%; to `CC(=O)N1c2ccc(S(=O)(=O)NCCC(=O)Nc3ccccc3C)cc2CC1C` (stereo not drawn), 10%; to `c1ccc(OCCn2cnc3ccccc32)cc1`, 1.94%.
To `Cc1cc(OC(=O)N(C)C)nc(SCc2c(Cl)cccc2Cl)n1` belongs 6.84%; to `C/C(CC(=O)Nc1cc(C)ccn1)=N\NC(=O)c1cccc(C)c1`, 7.83%; to `COc1ccccc1NS(=O)(=O)CC12CCC(CC1=O)C2(C)C` (stereo not drawn), 8.45%.
As for `C/C(=N/NC(=O)Cc1c(C)[nH][nH]c1=O)c1ccc(O)cc1`, the figure is 16.5%.
Regarding `COCCCNC(=S)Nc1ccc(C)cc1[N+](=O)[O-]`, the “hERG current change (%, negative = inhibition) at 1uM” value is reported as -0.0239%.
As to `C=CCn1c(=N)c(S(=O)(=O)c2ccc(C)c(C)c2)cc2c(=O)n3ccccc3nc21`, the “hERG current change (%, negative = inhibition) at 1uM” value was determined as 13.2%.
As for `CCOC(=O)C1(Cc2cccc(Cl)c2)CCCN(C(=O)c2cnn(CC)c2)C1` (stereo not drawn), the figure is 5.54%; as for `O=C(O)CCNC(=O)CCCn1nnc2ccccc2c1=O`, 15.9%.
As for `COc1cc(NC(=S)N(C)C)c(OC)cc1Cl`, the “hERG current change (%, negative = inhibition) at 1uM” value stood at 11.9%.
As for `Fc1ccccc1NC(=S)N/N=C/c1ccccc1Br`, the figure is 8.93%; as for `Cc1ccc(-c2nc(-c3ccccn3)sc2CC(=O)O)cc1`, 6.81%.
Take `CCCCCCCC(=O)Nc1ccc(S(=O)(=O)Nc2nccs2)cc1`: the “hERG current change (%, negative = inhibition) at 1uM” value was found to be 7.29%.
As to `CN(c1ccccc1)S(=O)(=O)c1cccc(C(=O)OCC(=O)NCCCN2CCCC2=O)c1`, the “hERG current change (%, negative = inhibition) at 1uM” value was 13.2%.
To `O=C(NC1CCSC1=O)c1cccc(Cl)c1` (stereo not drawn) belongs 6.05%.
On to `CCOc1ccc(-c2nnc3sc(COc4ccc(Cl)cc4)nn23)cc1`, for which the “hERG current change (%, negative = inhibition) at 1uM” value was 1.28%.
To `Cc1ccc(S(=O)(=O)N2CCCC(C(=O)NCCc3ccc(S(N)(=O)=O)cc3)C2)cc1` (stereo not drawn) belongs 11.7%; to `Clc1cccc(Cl)c1CNc1ccc(N2CCCC2)cc1`, 0.168%.
In the case of `O=C(c1ccc(F)cc1F)N1CCCc2ccccc21`, the “hERG current change (%, negative = inhibition) at 1uM” value was found to be 10.3%.
To `CCOCC(=O)Nc1ccc(S(=O)(=O)N2CCC(c3nc4ccccc4[nH]3)CC2)cc1` belongs 11.7%; to `CN(C(=O)CSc1nnc(-c2ccccc2)n1C)C1CCS(=O)(=O)C1` (stereo not drawn), 8.93%.
Take `COc1ccccc1/C=C/C=N/n1c(C2CCCCC2)n[nH]c1=S`: the “hERG current change (%, negative = inhibition) at 1uM” value was determined as 6.57%.
To `Cc1ccc(Oc2ncc(CN3CCOCC3)s2)cc1` belongs 16.5%.
With `CCOc1ccc(NC(=S)NC(=O)/C=C/c2ccco2)cc1`, the “hERG current change (%, negative = inhibition) at 1uM” value is given as 11.5%.
To `COc1cc(Br)c(CC(=O)NC2CC2)cc1OC` belongs 15.3%.
As for `Cn1c(CCN2CCOCC2)nc2cc(NC(=O)COc3ccc(Cl)cc3)ccc21`, the figure is 2%; as for `CC(C)NC(=O)c1ccc2c3n(nc2c1)-c1ccccc1CO3`, 10%.
As for `Cc1ccc(C)n1C(CC(=O)O)c1ccc(C#N)cc1` (stereo not drawn), the figure is 11%; as for `CN1CCN(C(=O)c2ccc(COc3ccc(Cl)cc3Cl)cc2)CC1`, -4.16%.
Regarding `CC(=O)Nc1ccc(Nc2nnc(-c3ccc(C)c(S(=O)(=O)NCC4CCCO4)c3)c3ccccc23)cc1` (stereo not drawn), the “hERG current change (%, negative = inhibition) at 1uM” value was determined as 7.6%.
`COc1cc(CCC(=O)Nc2ccncc2Cl)cc(OC)c1OC`: the “hERG current change (%, negative = inhibition) at 1uM” value is recorded as 1.85%.
Take `COCCn1c(SCC(=O)Nc2ccc(OC)cc2OC)nc2ccccc2c1=O`: the “hERG current change (%, negative = inhibition) at 1uM” value is 11.1%.
As for `CCc1nnc(NS(=O)(=O)c2ccc(NC(=S)NC(=O)c3ccc(F)cc3)cc2)s1`, the figure is 9.42%.
As for `CN(C)C(CNS(=O)(=O)c1ccc(F)cc1)c1cccnc1` (stereo not drawn), the figure is 27.6%; as for `CC(=O)N=c1c(C#N)cc2c(=O)n3cccc(C)c3nc2n1Cc1ccco1`, 6.34%; as for `O=C(CC1S/C(=N/N=C/C=C/c2ccccc2)NC1=O)Nc1ccc(Cl)c(Cl)c1` (stereo not drawn), 19.1%.
As for `O=C(NNc1c(F)c(F)cc(F)c1F)c1cc2ccccc2oc1=O`, the figure is 8.46%; as for `CC(=O)Nc1ccc(NC(=O)CSc2nc(N)c(NC(=O)c3ccccc3F)c(=O)[nH]2)cc1`, 5.84%.
